Source: PubChem BioAssay AID2060331 (Molecular Pharmacology Branch, DTP, NCI, 2025)
A number of entries come with more than one value. Only these are listed. An entry can have further records. Results that share an entry are repeated measurements in other runs, samples, wells, individuals or studies.

Tested on: Hs578T multi-cell spheroids, viability
Test: Anticancer human tumor Hs578T cell line growth inhibition [IpAb];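 further: drug exposure lasted 7 days before readout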
Details: compound alone; run of 06/01/2021
From the text: Combinatorial screen of targeted agents with ipatasertib and abemaciclib in multi-cell type tumor spheroids
A high-throughput screen of multi-cell type tumor spheroids was designed to identify active combinations of targeted small molecules and ipatasertib or abemaciclib. Complex spheroids include a stromal component modeled by human endothelial cells (HUVEC) and fibroblasts modeled by human mesenchymal stem cells (MSCs). The concentration ranges selected for each drug and investigational agent were based upon clinically achievable concentrations if the clinical Cmax of the agent was known.
Compounds. […] If the clinical Cmax for an agent had not been determined, the highest concentration tested was 10 microM.
NCI60 Cell Culture. […] The optimal seeding densities for each of the cell lines at each time point assessed were determined prior to performing the concentration response studies. […]

For `CC(C)NCC(C(=O)N1CCN(c2ncnc3c2C(C)CC3O)CC1)c1ccc(Cl)cc1` (stereo unspecified), the IC50 was 4.29 µM, 7.14 µM, > 10 µM, 4.9 µM, 6.73 µM, 2.79 µM, 5.7 µM, 4.13 µM, 4.31 µM, 2.6 µM, 6.68 µM.
